Results from paper PMC6451091.
The list shows a part of the results. For part of these data: At the low end of the ranking the order means little. For part of these data: The protein was read in a cell extract, so binding may be indirect.

Tests used:
Details in all cases: 20 mM HEPES pH 7.9, 100 mM NaCl, 1 mM DTT, 0.2 mg/mL BSA, 0.02% Triton X-100, 2% milk, 0.4 mg/mL salmon testes DNA; 1 h; temperature not stated; high values mean tight binding; double strand, one strand shown; sequences stand for … in GCCTAGCAC…GTGCTAGGTCTTGATTCGCTTGACGCTGCTG
PU.1 (IVT) = PU.1 (IVT) (UniProt P17947); experiment: protein-binding microarray (PBM)
[1] = target: PU.1 (endogenous, THP-1 nuclear extract) (UniProt P17947); experiment: nuclear extract protein-binding microarray (nextPBM)
[2] = target: T1, FLI1 (endogenous, THP-1 nuclear extract) (UniProt Q01543); experiment: as above
T1 sequence: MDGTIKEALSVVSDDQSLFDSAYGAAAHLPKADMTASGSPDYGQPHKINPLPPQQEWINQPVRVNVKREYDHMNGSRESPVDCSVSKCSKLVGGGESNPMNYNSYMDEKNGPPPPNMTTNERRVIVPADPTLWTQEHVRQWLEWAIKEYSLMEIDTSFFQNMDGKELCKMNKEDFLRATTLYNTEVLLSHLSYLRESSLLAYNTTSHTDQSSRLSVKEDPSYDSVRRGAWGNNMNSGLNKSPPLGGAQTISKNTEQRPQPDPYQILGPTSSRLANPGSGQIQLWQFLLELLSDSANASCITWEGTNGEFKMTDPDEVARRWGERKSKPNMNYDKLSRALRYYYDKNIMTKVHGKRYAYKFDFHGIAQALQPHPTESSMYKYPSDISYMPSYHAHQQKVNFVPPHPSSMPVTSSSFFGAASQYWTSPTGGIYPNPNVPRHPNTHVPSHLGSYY

GGCTGGCAGAAGTACTGTGC gave a binding signal (PU.1 (IVT)) of 0.226 z-score, a binding signal [1] of 0.389 z-score and a binding signal [2] of -0.483 z-score.
Work on ACAAAAAGGAACTGTACCCC yielded a binding signal (PU.1 (IVT)) of 1.74 z-score, a binding signal [1] of 1.92 z-score and a binding signal [2] of 0.651 z-score.
For AGGAAGAGGAAGTGAACTAT, the binding signal (PU.1 (IVT)) was 6.7 z-score, the binding signal [1] was 6.8 z-score and the binding signal [2] was 3.99 z-score.
GGAATGGGGAAGTGCTGGAC showed a binding signal (PU.1 (IVT)) of 6.65 z-score, a binding signal [1] of 6.53 z-score and a binding signal [2] of 3.07 z-score.
AAAAGGAGGAAGTTGGTTGG was tested, and the binding signal (PU.1 (IVT)) was 7.62 z-score, the binding signal [1] was 7.22 z-score and the binding signal [2] was 4.01 z-score.
With CACAAGGGGAAGTGGTAGGA the binding signal (PU.1 (IVT)) was 4.17 z-score, the binding signal [1] was 4.83 z-score and the binding signal [2] was 2.24 z-score.
TCTAAAAGGAAGTGGTGAAT gave a binding signal (PU.1 (IVT)) of 3.1 z-score, a binding signal [1] of 2.86 z-score and a binding signal [2] of 2.66 z-score.
CAGGGCAGGAAGTACTGTGC was tested, and the binding signal (PU.1 (IVT)) was 2.18 z-score, the binding signal [1] was 2.05 z-score and the binding signal [2] was 3.44 z-score.
Work on ATAAAAGGGAAGTGGGGCAT yielded a binding signal (PU.1 (IVT)) of 5.38 z-score, a binding signal [1] of 6.26 z-score and a binding signal [2] of 2.4 z-score.
GAAAACAGGAAGTCCCAAAG was tested, and the binding signal (PU.1 (IVT)) was 6.87 z-score, the binding signal [1] was 7.03 z-score and the binding signal [2] was 4.43 z-score.
AAAAAAAGGAAGTGATGTAC gave a binding signal (PU.1 (IVT)) of 7.37 z-score, a binding signal [1] of 6.52 z-score and a binding signal [2] of 3.06 z-score.
GGGGAAAGGAAGTGCATAAA gave a binding signal (PU.1 (IVT)) of 2.18 z-score, a binding signal [1] of 1.81 z-score and a binding signal [2] of 2.51 z-score.
For CAAATGAGGTACTGATGCGG, the binding signal (PU.1 (IVT)) was 0.387 z-score, the binding signal [1] was 0.796 z-score and the binding signal [2] was 0.0801 z-score.
GTGGAGGGGAAGTGGGAGGG showed a binding signal (PU.1 (IVT)) of 3.01 z-score, a binding signal [1] of 3.01 z-score and a binding signal [2] of 2 z-score.
Work on AAGAGGAGGAAGTGAAGAAA yielded a binding signal (PU.1 (IVT)) of 4.03 z-score, a binding signal [1] of 4.24 z-score and a binding signal [2] of 2.6 z-score.
With CGAAAGGGGAAGTGTTAAAC the binding signal (PU.1 (IVT)) was 7.14 z-score, the binding signal [1] was 6.9 z-score and the binding signal [2] was 3.63 z-score.
For TGAAAGGGGAAGTGCTAAAC, the binding signal (PU.1 (IVT)) was 6.69 z-score, the binding signal [1] was 6.76 z-score and the binding signal [2] was 3.01 z-score.
With GAAAAGGGGAACTGCCTTGG the binding signal (PU.1 (IVT)) was 6.46 z-score, the binding signal [1] was 6.62 z-score and the binding signal [2] was 1.86 z-score.
AAAAAAAGGAAGTGAACAAA was tested, and the binding signal (PU.1 (IVT)) was 6.63 z-score, the binding signal [1] was 6.37 z-score and the binding signal [2] was 3.12 z-score.
For AAAAAGAGGAAATGATTTAC, the binding signal (PU.1 (IVT)) was 6.97 z-score, the binding signal [1] was 6.75 z-score and the binding signal [2] was 3.37 z-score.
For AGGGAAGGGAAGTGGCTGTT, the binding signal (PU.1 (IVT)) was 2.31 z-score, the binding signal [1] was 2.95 z-score and the binding signal [2] was 1.54 z-score.
For CAAATGAGGAAATGATGCGG, the binding signal (PU.1 (IVT)) was 4.49 z-score, the binding signal [1] was 4.67 z-score and the binding signal [2] was 2.11 z-score.
For CAAAAAGGGAACTGGATGCT, the binding signal (PU.1 (IVT)) was 4.68 z-score, the binding signal [1] was 4.75 z-score and the binding signal [2] was 1.52 z-score.
Sequence GGGATGAGGAAGTCAACTTT has a binding signal (PU.1 (IVT)) of 4.92 z-score, a binding signal [1] of 5.95 z-score and a binding signal [2] of 2.22 z-score.
GGAAAGAGGAAGTGCTAGAG was tested, and the binding signal (PU.1 (IVT)) was 7.79 z-score, the binding signal [1] was 7.37 z-score and the binding signal [2] was 4.44 z-score.
For AGCATGAGGAAGTGTCAGAT, the binding signal (PU.1 (IVT)) was 4.45 z-score, the binding signal [1] was 4.66 z-score and the binding signal [2] was 2.04 z-score.
TAAAAGGAGAAGTGTGACTC showed a binding signal (PU.1 (IVT)) of 4.24 z-score, a binding signal [1] of 4.86 z-score and a binding signal [2] of 1.19 z-score.
In the case of GATAAGAGGAAATCCTCTGT, the binding signal (PU.1 (IVT)) is reported as 2.29 z-score, the binding signal [1] is reported as 2.03 z-score and the binding signal [2] is reported as 1.78 z-score.
AAAAAAGGGAAATGACACCA gave a binding signal (PU.1 (IVT)) of 4.34 z-score, a binding signal [1] of 3.99 z-score and a binding signal [2] of 1.85 z-score.
TAGATGAGGAAGTGAGCAGA showed a binding signal (PU.1 (IVT)) of 5.46 z-score, a binding signal [1] of 6.15 z-score and a binding signal [2] of 2.41 z-score.
Work on CCAAACAGGAAGTGCTTGTC yielded a binding signal (PU.1 (IVT)) of 5.99 z-score, a binding signal [1] of 6.47 z-score and a binding signal [2] of 5.66 z-score.
Sequence TGAGAGGGGAAGTGGCAGCT has a binding signal (PU.1 (IVT)) of 4.01 z-score, a binding signal [1] of 3.62 z-score and a binding signal [2] of 2.19 z-score.
In the case of AGAAAGAGGAACTTGGGCAG, the binding signal (PU.1 (IVT)) is reported as 6.95 z-score, the binding signal [1] is reported as 6.98 z-score and the binding signal [2] is reported as 2.47 z-score.
For AAATTAAGGAAGTGAGAAAA, the binding signal (PU.1 (IVT)) was 6.2 z-score, the binding signal [1] was 6.32 z-score and the binding signal [2] was 2.54 z-score.
In the case of GAAATAGGGAAGTGTGAGTT, the binding signal (PU.1 (IVT)) is reported as 6.74 z-score, the binding signal [1] is reported as 6.83 z-score and the binding signal [2] is reported as 2.72 z-score.
Sequence TAGAAGAGGAACTGCTGCCC has a binding signal (PU.1 (IVT)) of 3.92 z-score, a binding signal [1] of 4.31 z-score and a binding signal [2] of 0.878 z-score.
GATAAGAGGAGGTCCTCTGT gave a binding signal (PU.1 (IVT)) of -0.285 z-score, a binding signal [1] of -0.212 z-score and a binding signal [2] of 0.0833 z-score.
AAGAAGCGGAAGTGAAAGAC showed a binding signal (PU.1 (IVT)) of 6.8 z-score, a binding signal [1] of 6.92 z-score and a binding signal [2] of 4.94 z-score.
Work on CTTGGGAGGAAGTGACTGTC yielded a binding signal (PU.1 (IVT)) of 3.74 z-score, a binding signal [1] of 3.95 z-score and a binding signal [2] of 2.93 z-score.
In the case of CAAATGAGGAACTGATATTC, the binding signal (PU.1 (IVT)) is reported as 5.98 z-score, the binding signal [1] is reported as 6.44 z-score and the binding signal [2] is reported as 1.79 z-score.
Work on AAATAGAGGAAGTGGATGTT yielded a binding signal (PU.1 (IVT)) of 7.31 z-score, a binding signal [1] of 7.05 z-score and a binding signal [2] of 4.26 z-score.
For ACGAAAAGGAACTGTGCCCC, the binding signal (PU.1 (IVT)) was 0.94 z-score, the binding signal [1] was 0.985 z-score and the binding signal [2] was 0.486 z-score.
